Self-cleavage data for 20 variants are collected here from the RNAGym collection of RNA variant scans (doi:10.7554/elife.90254).

Read counts are not given, so values of variants with three or more changes are uncertain.

B1: OR4K15 (parent)
chain: GUUAACGGUCAUAGGCCAUGGAAACUAGGAGCACCAUUUCGCUGCCAGUGAAGAAAUGAACAAAGAAAAUCUGGGCCAGGCAGGCAUCAAAAGAAAUAGUCUUGCGCUCAACCAGAAAGUCUGUAAUCAUUUUAAGGGUA

The variants in this data set derive from B1. The data set can be described thus: self-cleavage, relative activity (ratio to wild type); higher = more cleavage; in vitro, sequencing; the parent is a self-cleaving ribozyme.
For the variant GUUAACGGUUAUAGGCCAUGGAAACUAGGAGCACCAUUCCGCUGCCAGUGAAGAAAUGAACAAAGAAAAUCUGGGCCAGGCAGGCAUCAAAAGAAAUGGUCUUGCGCUCAACCAGAAAGUCUGUAAUCAUUUUAGGGGUA [C10U U39C A98G A135G], the self-cleavage was 0.77.

For GUUAACGGUUAUAGGCCAUGGAAACUAGGAGCACCAUUUCGCUGCCAGUGAAGAAAUGAACAAAGAAAACCCGGGCCAGGCAGGCAUCAAAAGAAAUAGUCUUGCGCUCAACCAGAAAGUCUGUAAUCAUUUUAAGGGUA [C10U U70C U72C], the self-cleavage worked out at 0.41.

Regarding GUUAACGGUUAUAGGCCAUGGAAACUAGGAGCACCAUUUCGCUGCCAGUGAAGAAAUGAACAAAGAAAAUCUGGGCCAGGCGGGCAUCAAAAGAAAUAGUCUUGCGCUCAACCUGAAAGUCUGUAAUCAUUUUAAGGGUA [C10U A82G A114U], the self-cleavage amounted to 0.03.

GUUAACGGUUAUAGGCCAUGGAAGCUAGGAGCACCAUUUCGCUGCCAGAGAAGAAAUGAACAAAGAAAAUCUGGGCCAGACAGGCAUCAAAAGAAACAGUCUUGCGCUCAACCAGAAAGUCUGUAAUCAUUUUAAGGGUA [C10U A24G U49A G80A U97C]: the self-cleavage was 0.18.

Take GUUAACGGUGAUAGGCCAUGGAAACUAGGAGCACCAUUCCGCUGCCAGUGCAGAAAUGAACAAAGAAAAUCUGGGCCAGGCAGGCAUCAAAAGAAAUAGCCUUGCGCUCAACCAGAAAGUCUGUAAUCAUUUUAAGGGUA [C10G U39C A51C U100C]: the self-cleavage was 0.36.

On to GUUAACGGUCCUAGGCCAUGGAAACUAGGAGCACCAUUUCGCUGCCAGUGAAGAGAUGAACAAGGAAAGUCUGGGCCAGGCAGGCAUCAAAAGAAAUAGUCUUGCGCUCAACCAGAAAGUCUGUAAUCAUUUUAAGGGUA [A11C A55G A64G A69G], for which the self-cleavage amounted to 0.44.

On to GUUAACGGUCCUAGGCCAUGGAAACUAGGAGCACCAUUUCGCUGCCAGUGGAGAAAUGAACAAAGAAAAUCUGGGCCAGGCAGGCAUCAAAAGAAAUAGUCUUGCGCUCAACCAGAAAGUCUGUAAUCUUUCUAAGGGUA [A11C A51G A129U U132C], for which the self-cleavage amounted to 0.53.

For the variant GUUAACGGUUAUAGGCCAUGGAAACUAGGAGCACCAUUUCGCUGCCAGUGAAGAAAUGGACAAAGAAAAUCUGGGCCAGGCAGGCACCAAAAGAAAUAGUCUUGCGCUCAACCAGAAAGUCUGUAAUCAUCUUAAGGGUA [C10U A59G U87C U131C], the self-cleavage was 1.82.

Take GUUAACGGUUAUAGGCCAUGGAAACUAGGAGCACCAUUUCGCUGCCAGUGAAGAAAUGAACAGAGAAAAUCUGGGCCAGGCAGGCAUCAGAAGAAAUAGCCUUGCGCUCAACCAGAAAGUCUGUAAUCAUUUUAAGGGUA [C10U A63G A90G U100C]: the self-cleavage is 0.73.

Take GUUAACGGUUAUAGGCCAUGGAAACUAGGAGCACCAUUUCGCUGCCAGUGAAGAAAUGAACAAAGAAAAUCUGGGCCAGGCAGGCAUCAGAAGAAAUAGUCUUGCGCCCAACCAGAAAGUCUGUAAUCAUUUUAAGGGUA [C10U A90G U108C]: the self-cleavage came to 0.02.

On to GUUAACGGUCCUAGGCCAUGGAAACUAGGAGCACCAUUUCGCUGCCAGUGAAGAAAUGACCAAAGAAAAUCUGGGCCAGGCAGGCAUCAAAAGAAAUAGUCUUGCGCCCAACCAGAAUGUCUGUAAUCAUUUUAAGGGUA [A11C A60C U108C A118U], for which the self-cleavage was determined as 0.01.

For GUUAACGGUCCUAGGCCAUGGAGACUAGGAGCACCAUUUCGCUGCCAGUGAAGAAAUGAACAAAGAGAAUCUGGGCCAGGCAGGCAUCAAAAGAAAUAGUCUUGCGCUCAACCAGAAAGUCUGUAAUCAUUUUAAGGGUA [A11C A23G A67G], the self-cleavage was 1.3.

Regarding GUUAACGGUUAUAGGCCAUGGAAACUAGGAGCACCAUUUCGCUGCCAGUGAAGAAAUGAACAAAGAAAAUCUGGGCCAGGCAGGCGUCAAAAGAGAUAGUCUUGCGCUCAACCAGAAAGUCUGUAAUCAUUUUAAGGGUA [C10U A86G A95G], the self-cleavage turned out to be 2.26.

Turning to GUUAACGGUUAUAGGCCAUGGAAACAAGGAGCACCAUUUCGCUGCCAGUGAAGAAAUGAACAAAGAAAAUCUGGGCCAGGGAGGCAUCAAAAGAAAUAGUCUUGCGCUCAACCAGAAGGUCUGUAAUCAUUUUAAGGGUA [C10U U26A C81G A118G], the self-cleavage came to 0.06.

As for GUUAACGGUCCUAGGCCCUGGAAACUAGGAGCACCAUUUCGCUGCCAGUGAAGGAAUGAACAAAGAAAAUCUGGGCCAGGCAGGCAUCAAAAGAAAUAGUCUUGCGCUCAACCAGAAAGUCUGUAAUCAUUUUAAGGGUA [A11C A18C A54G], the self-cleavage came to 1.42.

Consider GUUAACGGUAAUUGGCCAUGGAAACUAGGAGCACCAUUUCGCUGCCAGUGAAGAAAUGAGCAAAGAAAAUCUGGGCCAGGCAGGCAUCAAAAGAAAUAGUCUUGCGCUCAACCAGAAAGUCUGUAAUCAUUUUAAGGGUA [C10A A13U A60G], for which the self-cleavage was found to be 0.64.

Take GUUAACGGGCAUAGGCCAUGGAAACUAGGAGCACCAUUUCGCUGCCAGUGAAGAAACGUACAAAGAAAAUCUGGGCCAGGCAGGCAUCAUAAGAAAUAGUCUUGCGCUCAACCAGAAAGUCUGUAAUCAUUUUAAGGGUA [U9G U57C A59U A90U]: the self-cleavage stood at 1.21.

Consider GUUAACGGUCCUAGGCCAUGGAAACUAGGAGCACCAUUUCGCUGCCAGUGAAGAAAUGAACAAAGAGAAUCUGGGCCAGGCAGGCAUCAAAAGGAAUAGUCUUGCGCUCAACCAGAAAGUCUGUAAUCAUUUUAAGGGUA [A11C A67G A94G], for which the self-cleavage was 1.

With GUUAACGGUUAUAGGCCUUGGAAACUAGGAGCACCAUUUCGCUGCCAGUGAAGAAAUGAACAAAGAAAAUCUGGGCCAGGCAGGCAUCAAAAGAAAUAGUCUUGCGCUCAACCAGAAAGUCGGUAAUCAUUUUAAGGGUA [C10U A18U U122G], the self-cleavage is 2.56.

For GUUAACGGUAAUAGGCCAUGGAAACUAGGAGCACCAUUUCGCUGCCAGUGAAGAAAUGGACAAAGAAAAUCUGGGCCAGGCAGGCAUCAAGAGAAAUAGUCCUGCGCUCAACCAGAAAGUCUGUAAUCAUCUUAAGGGUA [C10A A59G A91G U102C U131C], the self-cleavage came to 1.33.
